In the supplement of paper PMC3334620:
In all, about 33,000 sequences were measured (“E-score (-0.5 to 0.5)”: median about -0.021, highest 2% from about 0.32 on). This is one part of the list.

What follows are sequences tested against T1, Zap1 (UniProt P47043) (assay: PBM E-score (8-mer binding enrichment) (E-score (-0.5 to 0.5)); higher = stronger / more preferred TF binding; most listed sequences are background and not binding sites). Conditions: protein concentration: 200 nM; construct: GST-full length.
T1 sequence: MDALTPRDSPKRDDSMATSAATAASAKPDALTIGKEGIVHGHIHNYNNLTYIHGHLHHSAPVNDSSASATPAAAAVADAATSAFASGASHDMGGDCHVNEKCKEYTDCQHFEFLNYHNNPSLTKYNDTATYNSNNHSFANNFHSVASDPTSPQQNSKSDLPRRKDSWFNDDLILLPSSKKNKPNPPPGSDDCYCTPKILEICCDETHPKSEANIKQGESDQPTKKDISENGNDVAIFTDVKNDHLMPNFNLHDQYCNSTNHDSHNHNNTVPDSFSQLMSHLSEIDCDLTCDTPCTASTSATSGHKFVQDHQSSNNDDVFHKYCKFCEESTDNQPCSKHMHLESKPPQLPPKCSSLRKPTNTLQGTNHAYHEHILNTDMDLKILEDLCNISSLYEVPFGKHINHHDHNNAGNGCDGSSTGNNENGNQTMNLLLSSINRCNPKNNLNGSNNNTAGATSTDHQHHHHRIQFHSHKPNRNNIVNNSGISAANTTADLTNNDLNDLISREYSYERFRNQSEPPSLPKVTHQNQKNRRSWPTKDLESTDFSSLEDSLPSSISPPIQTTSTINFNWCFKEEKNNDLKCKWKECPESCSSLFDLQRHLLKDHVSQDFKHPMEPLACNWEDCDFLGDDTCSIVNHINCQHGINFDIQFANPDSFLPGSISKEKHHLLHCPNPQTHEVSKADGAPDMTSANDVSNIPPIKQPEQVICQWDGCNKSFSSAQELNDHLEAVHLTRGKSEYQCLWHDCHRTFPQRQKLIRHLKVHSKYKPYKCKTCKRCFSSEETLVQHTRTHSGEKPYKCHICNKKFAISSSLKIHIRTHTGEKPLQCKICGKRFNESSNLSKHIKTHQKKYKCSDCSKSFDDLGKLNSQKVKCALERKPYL
Procedure, shortened: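 Masliner-normalised scans of fluorescent anti-GST signal were the basis for scoring. That signal came from GST-tagged yeast transcription factors applied at about 100-200 nM to double-stranded universal all-10-mer Agilent arrays on fresh or once-stripped slides. Each ungapped eight-base word, pooled with its reverse complement, received an E-score from the Universal PBM Analysis Suite.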

Compared with CTGTGGTA, AACCTTAC is higher in “PBM E-score” value: 0.0465 for the first, 0.318 for the second.

Going from ATTGATAG to ACACTTCT, the “PBM E-score” value falls from 0.118 to -0.0698.

First: AGGGCGGC
Second: CAGCAGTC
The “PBM E-score” value of the first is lower: -0.313 for the first, -0.0852 for the second.

First: CCATATAC
Second: ATATAACA
The “PBM E-score” value of the first is lower: 0.0328 for the first, 0.176 for the second.

First: CTATGAAA
Second: GACACCTA
The “PBM E-score” value of the first is lower: -0.0314 for the first, -0.0196 for the second.

First: GTTCATAA
Second: GTCTGTTA
The “PBM E-score” value of the first is higher: 0.0881 for the first, -0.00667 for the second.

Compared with AATCTACC, ATCGAGAC is lower in “PBM E-score” value: 0.0376 for the first, -0.0844 for the second.

Compared with ATCGTGCA, AGCCATAT is lower in “PBM E-score” value: 0.0447 for the first, -0.114 for the second.

Compared with CTGGACTA, CAGGTTCA is lower in “PBM E-score” value: 0.0556 for the first, -0.0984 for the second.

First: CCAAGGAG
Second: GCGATCTA
The “PBM E-score” value of the first is lower: -0.166 for the first, -0.15 for the second.

Compared with CGTGTGAA, TCCATAAA is higher in “PBM E-score” value: -0.103 for the first, 0.061 for the second.

First: CGATCCTC
Second: CCCTATAA
The “PBM E-score” value of the first is lower: -0.25 for the first, -0.176 for the second.

Compared with ACGTACTC, GTCTCCAC is higher in “PBM E-score” value: -0.181 for the first, -0.11 for the second.

Compared with CTCTGGTC, AAGGCAGA is lower in “PBM E-score” value: -0.0147 for the first, -0.215 for the second.

Going from CAGCGATA to GATCCAGA, the “PBM E-score” value falls from 0.0366 to 0.021.

First: AGATAATC
Second: CCACGCCG
The “PBM E-score” value of the first is higher: -0.0271 for the first, -0.032 for the second.

Compared with AATGGTTA, AAGACTAT is lower in “PBM E-score” value: 0.413 for the first, -0.0329 for the second.

Compared with AAGATTCA, GACACAGA is lower in “PBM E-score” value: 0.0114 for the first, -0.043 for the second.

Compared with AAGGGACT, CAGCCTAA is lower in “PBM E-score” value: 0.0226 for the first, -0.0393 for the second.

Going from CTCCTCGA to ACGGACAC, the “PBM E-score” value rises from -0.0993 to -0.00855.

Compared with CAACACGG, CTTCGCGC is higher in “PBM E-score” value: -0.238 for the first, 0.0973 for the second.

Going from CCAACTAC to CCGCTCAG, the “PBM E-score” value rises from 0.0442 to 0.0951.

Compared with CCATCGAG, TATTAATA is higher in “PBM E-score” value: -0.0181 for the first, 0.0379 for the second.

First: AAGTGGTA
Second: ATTTTTGA
The “PBM E-score” value of the first is lower: 0.0985 for the first, 0.103 for the second.

First: AGGGCTCG
Second: CCTCACCA
The “PBM E-score” value of the first is lower: -0.284 for the first, 0.0877 for the second.

Compared with AAGAAATG, ACCGAGGG is lower in “PBM E-score” value: 0.0183 for the first, -0.0852 for the second.

Going from CCCGGGTC to CGGGTAAA, the “PBM E-score” value rises from 0.0771 to 0.144.

First: AGCGCGGC
Second: CTACTCTA
The “PBM E-score” value of the first is lower: 0.00764 for the first, 0.0662 for the second.

First: GATCTGAC
Second: CGATTAAA
The “PBM E-score” value of the first is lower: -0.146 for the first, 0.128 for the second.

First: ATTTGGTA
Second: AGCGTTCC
The “PBM E-score” value of the first is higher: 0.253 for the first, -0.232 for the second.

Compared with GATTAATC, CTATTGAG is lower in “PBM E-score” value: 0.13 for the first, 0.108 for the second.

First: CATCCTCG
Second: ATATTATG
The “PBM E-score” value of the first is lower: -0.191 for the first, 0.152 for the second.

Going from GTCGCTAA to ATATGCAA, the “PBM E-score” value falls from 0.0353 to -0.167.

Going from CCAACGAG to CTGGTCCC, the “PBM E-score” value falls from -0.237 to -0.26.

Going from AACTATTA to ACTTAATG, the “PBM E-score” value falls from 0.109 to 0.0759.

Going from GGGACCAC to AGGTACTG, the “PBM E-score” value rises from -0.11 to 0.172.

Compared with ATTAGACA, ACGGAGAT is lower in “PBM E-score” value: 0.0517 for the first, -0.211 for the second.

Compared with AAATTAAC, AGCCGATG is lower in “PBM E-score” value: 0.244 for the first, -0.139 for the second.

First: TTTCGAAA
Second: TATTACGA
The “PBM E-score” value of the first is lower: 0.09 for the first, 0.124 for the second.

Going from CCTCGTTC to ATATTGAT, the “PBM E-score” value rises from -0.0521 to 0.00311.

Going from AATCCCAA to ATCAAACA, the “PBM E-score” value rises from -0.0211 to 0.114.

Going from CACACCTA to CGGGGCCA, the “PBM E-score” value rises from -0.0992 to 0.0429.

Compared with ACTGGCAT, CAATTATG is higher in “PBM E-score” value: -0.196 for the first, 0.0708 for the second.

Going from ACGCATAT to TGTAGACA, the “PBM E-score” value rises from -0.164 to -0.0256.

Going from CGGCTCAG to CATGATAA, the “PBM E-score” value rises from -0.0416 to 0.0833.

First: CTGTTCTA
Second: CTCGGAAC
The “PBM E-score” value of the first is lower: -0.0855 for the first, 0.188 for the second.

Compared with ATCGTGTA, ACGCATAG is lower in “PBM E-score” value: 0.0225 for the first, -0.226 for the second.

First: GCATGTCC
Second: ACGCATCT
The “PBM E-score” value of the first is higher: -0.0606 for the first, -0.0868 for the second.

Going from CAGTCGCA to ACCGAATC, the “PBM E-score” value rises from -0.22 to -0.0911.

First: CTGCCACC
Second: ACAAGCGC
The “PBM E-score” value of the first is lower: -0.206 for the first, -0.179 for the second.

Going from AATGCGTC to CGGCTACC, the “PBM E-score” value rises from -0.146 to 0.214.

First: AGAGCCTC
Second: CTGGCTCC
The “PBM E-score” value of the first is lower: -0.226 for the first, -0.187 for the second.

Compared with CAGAGATA, CAGAGTAA is lower in “PBM E-score” value: 0.103 for the first, -0.0034 for the second.

Going from GTTCCTTA to ACGGGAAG, the “PBM E-score” value falls from 0.0411 to -0.247.

Going from TCATCGCA to AATAGTGA, the “PBM E-score” value rises from -0.133 to 0.0939.

First: AGGGAGTG
Second: AGCACGTG
The “PBM E-score” value of the first is lower: -0.24 for the first, -0.0712 for the second.

First: AGAGGCAG
Second: ACTAGCCC
The “PBM E-score” value of the first is lower: -0.221 for the first, 0.0554 for the second.

First: AACTGTAT
Second: CCTCATAG
The “PBM E-score” value of the first is higher: 0.113 for the first, 0.0183 for the second.

Going from CCAGGAAG to GCTAGTAC, the “PBM E-score” value falls from -0.0138 to -0.0763.

Compared with AGGCAACT, TATCCTCA is higher in “PBM E-score” value: -0.121 for the first, 0.0438 for the second.

First: AAGGGACC
Second: AACGAAAT
The “PBM E-score” value of the first is lower: 0.117 for the first, 0.146 for the second.

First: CAACCGAA
Second: ACAACACA
The “PBM E-score” value of the first is higher: 0.199 for the first, 0.113 for the second.

First: GCGGGTAC
Second: ACGGTAAG
The “PBM E-score” value of the first is higher: 0.256 for the first, 0.016 for the second.

First: AGAATGGC
Second: ACAGCCAT
The “PBM E-score” value of the first is higher: 0.051 for the first, -0.215 for the second.

First: AGTTCGAT
Second: AATGGGGG
The “PBM E-score” value of the first is higher: -0.0585 for the first, -0.346 for the second.

Going from AACTCCGT to AAGAAAGC, the “PBM E-score” value falls from -0.0145 to -0.113.

Compared with AAGAAATC, CCCCGTGA is higher in “PBM E-score” value: -0.146 for the first, -0.0483 for the second.

Compared with CGCAGGTC, GAGAATAA is higher in “PBM E-score” value: -0.0853 for the first, 0.0442 for the second.

Compared with AAACTAGC, GGATAAAC is higher in “PBM E-score” value: -0.168 for the first, 0.149 for the second.

Compared with AAAGCACA, AACCTGCA is higher in “PBM E-score” value: -0.00105 for the first, 0.286 for the second.

First: GGTTACAA
Second: AATACATA
The “PBM E-score” value of the first is higher: 0.455 for the first, 0.0387 for the second.

Compared with AACGGGCG, GGGTTTAC is higher in “PBM E-score” value: -0.18 for the first, 0.316 for the second.

Going from TATAAATA to ATACGCCG, the “PBM E-score” value falls from 0.27 to -0.298.

Compared with ATACCTAA, AGCGAGTA is lower in “PBM E-score” value: 0.304 for the first, 0.0024 for the second.

Going from GATCTCAA to ACTGGCAC, the “PBM E-score” value falls from 0.00611 to -0.121.

Compared with CTGAGACC, GGATGGCC is lower in “PBM E-score” value: 0.0473 for the first, -0.234 for the second.

Going from AGTGCCAA to GAGGGGTA, the “PBM E-score” value rises from -0.103 to 0.245.

Going from GCTCATGA to AGAGCGAA, the “PBM E-score” value falls from 0.0315 to -0.124.

Going from CATTAGAC to CTGGTCTC, the “PBM E-score” value falls from -0.141 to -0.235.

Compared with GAACTGAC, GCAACCAC is higher in “PBM E-score” value: -0.147 for the first, 0.269 for the second.

First: ACGTTGCC
Second: ACCCATTG
The “PBM E-score” value of the first is lower: -0.361 for the first, 0.166 for the second.

First: ACAACGCA
Second: CCACTAAA
The “PBM E-score” value of the first is lower: -0.131 for the first, 0.145 for the second.

First: AGTTGGAG
Second: ATTTGATC
The “PBM E-score” value of the first is lower: -0.0267 for the first, 0.0382 for the second.

Compared with CGCCTCAG, AATACCCC is higher in “PBM E-score” value: -0.281 for the first, 0.237 for the second.

Going from AAAACCAG to ATGGAATA, the “PBM E-score” value falls from 0.253 to 0.161.

Compared with CCTATCTA, CCTAGAAC is higher in “PBM E-score” value: -0.108 for the first, 0.039 for the second.
